Laboratory results as given in PubChem BioAssay AID651820 (National Center for Advancing Translational Sciences (NCATS), 2012).
The whole screen tested about 340,000 compounds, of which about 12,000 (3.5%) were called active. The shares of active, inactive and inconclusive entries below differ from those in the screen. Calls come from the whole dose curve; as a rule, active = well fitted inhibition curve with a large enough effect; inconclusive = small, poorly fitted or top-dose-only effect, or another doubt; inactive = no such curve, though single readings can be large or run the other way. No potency is given beside an inconclusive call; the fits are too rough.

Assay: qHTS Assay for Inhibitors of Hepatitis C Virus (HCV)
Conditions: Huh7.5.1 HCVcc-Cre (HCVcc is cell-culture hepatitis C virus) infection, luciferase reporter, 44 h; activity change, negative = inhibition: at 41.8 µM (top of the series) unless noted
In short: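 Compounds are dispensed onto cells plated 4 h earlier at 1,000 per well, with HCVcc-Cre virus (about 0.5 moi) added next. Following 44 h of culture, luminescent signal is measured for 15 sec after 15 min with substrate at room temperature.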
% is set by controls: 0 for no effect and ±100 for the full control effect; potency is the fitted concentration of half-maximal effect; tags give direction and shape of the fitted curve.

| SMILES | Potency | activity change, negative = inhibition |
| --- | --- | --- |
| COc1cc(/C=C/c2nc3ccccc3c(=O)n2-c2ccccc2O)ccc1O | inconclusive [inhibitor, single point] |  |
| CC(=O)Nc1c(C)ccc(CNC(=O)COc2cc(C)ccc2C)c1C |  | inactive: -6.72% |
| OC(COc1ccccc1)CN1C2=NCCCN2c2ccccc21 (stereo not given) | inconclusive [inhibitor, single point] |  |
| COc1cccc(NC(=O)c2ccc(S(=O)(=O)NCc3cccnc3)cc2)c1 | active: 10 µM |  |
| CCOC(=O)c1c(NC(=O)CN(C)C)sc(C(=O)N(CC)CC)c1C | inconclusive [inhibitor, single point] |  |
| COc1ccc(Nc2sc(C(=O)c3ccc(Cl)cc3)c(N)c2C(=O)Nc2ccccc2OC)cc1 | inconclusive [inhibitor, single point] |  |
| CCOc1ccc(CSC(=N)N)cc1Cl |  | inactive: -16.9% |
| CC1Cc2ccccc2N1C(=O)CCn1c(=O)sc2ccccc21 (stereo not given) |  | inactive: -18% |
| CCCCCc1cc(=O)oc2c(C(CCN3CCCC(C)C3)c3ccc4c(c3)OCO4)c(OC)cc(OC)c12 (stereo not given) | inconclusive [inhibitor, single point] |  |
| C[n+]1c2ccccc2nc2ccc(NCCO)cc21 | active: 14.1 µM |  |
| CC1CCCN(C(=O)CSc2nc3ncccc3[nH]2)C1 (stereo not given) | inconclusive [inhibitor, single point] |  |
| COc1ccc(-c2cc(=O)c3c(O)cc(O)cc3o2)cc1 | active: 12.6 µM |  |
| O=C(/C=C/c1ccc(S(=O)(=O)NCc2ccco2)cc1)N1CCN(c2ccccc2)CC1 | inconclusive [inhibitor, single point] |  |
| Cc1nnsc1SCCNC(=O)Nc1ccc(Cl)cc1 | inconclusive [inhibitor, single point] |  |
| Cc1c(OC(C)C(=O)NCCCn2ccnc2)ccc2c3c(c(=O)oc12)CCC3 (stereo not given) | inconclusive [inhibitor, single point] |  |
| CC(C)(C)NC(=O)c1ccccc1NC(=O)c1ccc2c(c1)OCO2 | inconclusive [inhibitor, partial curve] |  |
| Cc1cc(C(=O)N/N=C/c2ccccc2Br)no1 |  | inactive: 19.7% |
| CCn1nnnc1SCC(=O)c1ccc(C)cc1 |  | inactive: -8.82% |

| SMILES | Potency | activity change, negative = inhibition |
| --- | --- | --- |
| COc1ccc(Cl)cc1C(=O)Nn1cnc2ccccc2c1=O |  | inactive: -0.707% |
| c1ccc(C(NCCNC(c2ccccc2)c2ccccc2)c2ccccc2)cc1 | inconclusive [inhibitor, single point] |  |
| COc1ccc(OC)c2nc(-c3ccc4c(c3)OCO4)ccc12 | active: 4.47 µM |  |
| COc1cc(C(=O)Nc2ccc(NC(=O)c3ccccc3)nc2)cc(OC)c1OC | inconclusive [inhibitor, partial curve] |  |
| CN(CC(=O)N1CCN(Cc2ccccc2)CC1)S(=O)(=O)c1ccc(Br)cc1 | inconclusive [inhibitor, single point] |  |
| CC(C)OC(=O)CC(=O)CSc1nc2c(c(-c3cccs3)c1C#N)CCC2 | active: 10 µM |  |
| CC1(C)c2ssc(=S)c2-c2ccccc2N1C(=O)c1ccco1 |  | inactive: 12.4% |
| O=[N+]([O-])c1ccc(NC(=S)NCCc2ccc(Cl)cc2)cc1 | inconclusive [inhibitor, single point] |  |
| CC(=O)c1cccc(NC(=O)Nc2csc3c2CCCC3)c1 | inconclusive [inhibitor, partial curve] |  |
| Cc1nc(N2CCC(C)CC2)c2oc3ccccc3c2n1 | inconclusive [inhibitor, single point] |  |
| Cc1cc(C)c(CN2CCC(N3CCC(C(=O)NCC4CCCO4)CC3)CC2)cc1C (stereo not given) | inconclusive [inhibitor, partial curve] |  |
| CC(=O)Nc1ccc(C(=O)Nc2ccc(S(=O)(=O)N3CCCCC3)cc2)cc1 | inconclusive [inhibitor, single point] |  |
| CC(=O)N(Cc1cc(=O)[nH]c2ccccc12)c1ccccc1C |  | inactive: 14% |
| CN(C)S(=O)(=O)c1cccc(NC(=O)c2ccc(S(=O)(=O)N3CCCC3)cc2)c1 | active: 10 µM |  |
| O=C(Nc1ccc(N=Nc2ccccc2)cc1)c1ccc(Cl)cc1Cl | inconclusive [inhibitor, full curve, poor fit] |  |
| Cc1cccc(NS(=O)(=O)c2cccc(C(=O)N3CCN(C/C=C/c4ccccc4)CC3)c2)c1 | inconclusive [inhibitor, single point] |  |
| COc1cc(NC(=O)c2ccc(OC)c([N+](=O)[O-])c2)ccc1NC(=O)c1cccs1 | inconclusive [inhibitor, partial curve] |  |
